Experimental data as given in PubChem BioAssay (Tox21).
Where “and” joins values, the source holds several entries; their conditions need not be identical. Identical values can stand only once. The inconclusive results got no clear call from the source; some entries with a clear call stand among them for comparison. Potencies beside an inconclusive call are fits to weak or partial responses and may not hold up. More than one record can exist for a structure, and the calls need not agree. Calls of active or inactive are those of the source. Calls come from the whole dose curve; as a rule, active = well fitted activation curve with a large enough effect in the repeat runs; inconclusive = weak or mixed curves; inactive = no such curve, though single readings can be large or run the other way.

Molecular target: Nuclear receptor subfamily 1 group I member 3 (Homo sapiens) (UniProt Q14994)
UniProt Q14994, sequence (Q14994 whole entry, looked up): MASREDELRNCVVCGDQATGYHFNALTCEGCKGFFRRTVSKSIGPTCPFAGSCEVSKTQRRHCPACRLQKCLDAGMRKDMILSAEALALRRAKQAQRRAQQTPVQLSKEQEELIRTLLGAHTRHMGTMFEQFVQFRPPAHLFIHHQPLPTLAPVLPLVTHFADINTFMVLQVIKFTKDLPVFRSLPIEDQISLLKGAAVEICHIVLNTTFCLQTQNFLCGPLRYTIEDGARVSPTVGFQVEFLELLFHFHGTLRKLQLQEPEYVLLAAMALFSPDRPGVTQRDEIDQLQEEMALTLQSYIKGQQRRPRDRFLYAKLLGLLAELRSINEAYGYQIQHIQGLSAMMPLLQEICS
Assay: qHTS assay to identify small molecule agonists of the constitutive androstane receptor (CAR) signaling pathway (AID 1224839); note: nearly all actives have a fitted effect of over 15% in size;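 for activation: HepG2 cells stably carrying human CAR and a CYP2B6 luciferase reporter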
Details: HepG2 hCAR CYP2B6-luciferase, agonist mode, 24 h; series mostly up to 92.4 µM
How it was run: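 Cells were plated and incubated 4 hrs, then dosed with compounds at 15 concentrations. PK11195 was added to 0.75 uM final. After 24 hrs at 37 C, luciferase luminescence was measured.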
Potency is the fitted concentration of half-maximal effect; tags give direction and shape of the fitted curve.

SMILES | Potency
CNC(=O)Oc1cccc2ccccc12 | inconclusive: 60.6 µM [activator, partial curve]
N#C/C=C/C#N | active: 64 µM
CC(C)(C)C(O)C(Oc1ccc(-c2ccccc2)cc1)n1cncn1 (centres undefined) | inconclusive: 61.1 µM [activator, partial curve]
O=C=Nc1ccc(Cl)cc1 | active: 6.86 µM
N#Cc1cc(Br)c(O)c(Br)c1 | inconclusive: 76.9 µM [activator, partial curve, poor fit]
CC(CC(C#N)(c1ccccc1)c1ccccc1)N(C)C (centres undefined) | active: 27.2 µM
CCN(CC)C(=O)C(C)Oc1cccc2ccccc12 (centres undefined) | active: 54.9 µM and active: 61.1 µM
[N-]=[N+]=[N-] | inconclusive: 74.4 µM [activator, single point] and inactive
Nc1cccnc1 | inactive
CCCN(CCC)c1c([N+](=O)[O-])cc(C(C)C)cc1[N+](=O)[O-] | active: 33.6 µM
CCCN(CC1CC1)c1c([N+](=O)[O-])cc(C(F)(F)F)cc1[N+](=O)[O-] | inconclusive: 34.4 µM [activator, partial curve]
Nc1c(Cl)c(Cl)c(Cl)c(Cl)c1Cl | inconclusive: 54.5 µM [activator, partial curve, poor fit]
CCOP(=S)(OCC)Oc1ccc2c(C)c(Cl)c(=O)oc2c1 | active: 31 µM and active: 27.3 µM and active: 29.8 µM
FC(F)(F)c1cccc(C2=CCN(CCc3ccc4ccccc4c3)CC2)c1 | inactive
Nc1ccc(N=Nc2ccc(-c3ccc(N=Nc4c(S(=O)(=O)O)cc5cc(S(=O)(=O)O)c(N=Nc6ccccc6)c(O)c5c4N)cc3)cc2)c(N)c1 | inconclusive: 12.5 µM [activator, partial curve, poor fit]
O=C(OC1CCCCC1)c1ccccc1C(=O)OC1CCCCC1 | inconclusive: 45.6 µM [activator, partial curve]
Cc1cc(C)c(C(=O)P(=O)(c2ccccc2)c2ccccc2)c(C)c1 | active: 15.4 µM
c1cc2c3c(cccc3c1)CC2 | inconclusive: 48.6 µM [activator, partial curve]
COP(=S)(OC)Oc1nc(Cl)c(Cl)cc1Cl | inconclusive: 48.5 µM [activator, partial curve]
COC(=O)c1c(C(F)F)nc(C(F)(F)F)c(C2=NCCS2)c1CC(C)C | inconclusive: 34.4 µM [activator, partial curve]

SMILES | Potency
c1ccc2sc(SNC3CCCCC3)nc2c1 | inconclusive: 34.4 µM [activator, partial curve]
NC(=O)CI | inactive
CCOC(=O)OC1=C(c2cc(C)ccc2C)C(=O)NC12CCC(OC)CC2 (centres undefined) | inactive
O=C(O)CCCOc1ccc(Cl)cc1Cl | inconclusive: 62.2 µM [activator, partial curve, poor fit]
CC(C)(C)C(O)/C(=C\c1ccc(Cl)cc1Cl)n1cncn1 (centres undefined) | inconclusive: 74 µM [activator, partial curve]
Cc1ccc(C)c2ccccc12 | inactive
O=C(CBr)c1ccccc1 | inconclusive: 61.5 µM [activator]
COP(=S)(OC)Oc1cc(Cl)c(Cl)cc1Cl | inconclusive: 29.8 µM [activator, partial curve]
CCCCN(CCCC)SN(C)C(=O)Oc1cccc2c1OC(C)(C)C2 | inconclusive: 55.4 µM [activator, partial curve] and inconclusive: 34.4 µM [activator, partial curve]
CCSCc1ccccc1OC(=O)NC | active: 27.3 µM
CCOC(=O)C1(c2ccccc2)CCN(CCC(C#N)(c2ccccc2)c2ccccc2)CC1 | inconclusive: 33.5 µM [activator, partial curve, poor fit]
COP(=O)(OC)OC | inactive
COP(=S)(OC)Oc1cc(Cl)c(Br)cc1Cl | active: 54.5 µM
c1coc(-c2nc3ccccc3[nH]2)c1 | active: 7.7 µM
CC(C)c1c(CN(C)C(C)Cc2ccccc2)n(C)n(-c2ccccc2)c1=O (centres undefined) | active: 13.3 µM
Nc1ccc(-c2ccc(N)cc2)cc1 | active: 53.9 µM and active: 21.7 µM
Nc1ccccc1C(=O)Oc1ccc2ccccc2c1 | active: 54.5 µM
O=[N+]([O-])c1ccc(Oc2ccc(Cl)cc2Cl)cc1 | active: 54.8 µM
BrCC(Br)C1CCC(Br)C(Br)C1 (centres undefined) | inconclusive: 48.3 µM [activator, partial curve]
